Source: a collection of fitness landscapes (doi:10.1016/j.celrep.2020.107928)
Whole data set: some 81,000 sequences, median “one-hybrid fitness for binding parS DNA” near -0.17, cut for the highest 2% near 0.51. Some of the results follow.

B1: Caulobacter ParB omega fusion; a variant is named by its letters at X, in order, B8GW30 (parent)
chain: MESVVVGEPGMSEGRRGLGRGLSALLGEVDAAPAQAPGEQLGGSREAPIEILQRNPDQPRRTFREEDLEDLSNSIREKGVLQPILVRPSPDTAGEYQIVAGERAWRAAQRAGLKTVPIMVRELDDLAVLEIGIIENVQRADLNVLEEALSYKVLMEKFERTQENIAQTIGKSXSHVANXMRLLXLPDEVQSYLVSGELTAXHARAIAAAADPVALAKQIIEGGLSVRETEALARKAPNLSAGKSKGGRPPRVKDTDTQALESDLSSVLGLDVSIDHRGSTGTLTITYATLEQLDDLCNRLTRGI

Variants of: B1
Experiment: one-hybrid fitness for binding parS DNA (scaled: cognate 1, non-cognate 0); higher = stronger binding
Details: with parS DNA site
Method in brief: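 On M9-minus-histidine containing 0.1 mM IPTG and 5 mM 3-AT, E. coli USO cells with a HIS3 reporter, site 19 bp from the promoter, grew 48 hours at 37°C to select Caulobacter ParB libraries randomised at four specificity codons. Plasmids from before and after were Illumina-sequenced, with three replicate libraries pooled and variants under 10 reads left out. Fitness is the log change in variant-to-wild-type read ratio, rescaled against cognate and non-cognate.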

Row | Variant | one-hybrid fitness for binding parS DNA
1 | QYHP | ≤ 0.2
2 | VSLG | ≤ 0.2
3 | QDAA | ≤ 0.2
4 | QQEI | ≤ 0.2
5 | QRFT | ≤ 0.2
6 | VLPM | ≤ 0.2
7 | GFMG | ≤ 0.2
8 | NEHC | ≤ 0.2
9 | PSCM | ≤ 0.2
10 | WKFS | ≤ 0.2
11 | RGSI | ≤ 0.2
12 | WHTG | ≤ 0.2
13 | QVDH | ≤ 0.2
14 | TECS | ≤ 0.2
15 | KNYY | ≤ 0.2
16 | HNEW | ≤ 0.2
17 | GTTR | ≤ 0.2
18 | PDDT | ≤ 0.2
19 | AAHK | ≤ 0.2
20 | NWHW | ≤ 0.2
21 | GVPH | ≤ 0.2
22 | FSDD | ≤ 0.2
23 | ENRN | ≤ 0.2

Row | Variant | one-hybrid fitness for binding parS DNA
24 | NGKT | ≤ 0.2
25 | PTVA | ≤ 0.2
26 | PVSS | ≤ 0.2
27 | TCLA | ≤ 0.2
28 | TMNE | ≤ 0.2
29 | RHSY | 0.41
30 | VYQY | ≤ 0.2
31 | IYHM | ≤ 0.2
32 | WIKG | ≤ 0.2
33 | PVYY | ≤ 0.2
34 | LKGE | ≤ 0.2
35 | DNLC | ≤ 0.2
36 | SGGC | ≤ 0.2
37 | VDGI | ≤ 0.2
38 | RGKH | ≤ 0.2
39 | GRSR | ≤ 0.2
40 | FRTE | ≤ 0.2
41 | RYRV | ≤ 0.2
42 | EFAG | ≤ 0.2
43 | DRRC | ≤ 0.2
44 | WWQF | ≤ 0.2
45 | IETR | ≤ 0.2
46 | VINL | ≤ 0.2

Row | Variant | one-hybrid fitness for binding parS DNA
47 | LYLT | ≤ 0.2
48 | LSTS | ≤ 0.2
49 | VTLI | ≤ 0.2
50 | RTMG | 1
51 | HCYC | ≤ 0.2
52 | PRRY | ≤ 0.2
53 | NLSS | ≤ 0.2
54 | QKQT | ≤ 0.2
55 | PVEV | ≤ 0.2
56 | TKDF | ≤ 0.2
57 | TASH | 0.232
58 | AAYY | ≤ 0.2
59 | QAQQ | ≤ 0.2
60 | QHNA | ≤ 0.2
61 | ATKS | ≤ 0.2
62 | DNTV | ≤ 0.2
63 | ITCC | ≤ 0.2
64 | CYHL | ≤ 0.2
65 | VCRT | ≤ 0.2
66 | YWNS | ≤ 0.2
67 | GITR | ≤ 0.2
68 | SVRT | ≤ 0.2
